Consider 72 sequences from paper PMC10726135.

This is one part of the list. At the low end of the ranking, values are background and their order means little. The protein was read in a cell extract, so binding may be indirect.

In the experiment the target is T1, HNF4alpha2 (COS-7 nuclear extract) (UniProt P41235).
T1 sequence: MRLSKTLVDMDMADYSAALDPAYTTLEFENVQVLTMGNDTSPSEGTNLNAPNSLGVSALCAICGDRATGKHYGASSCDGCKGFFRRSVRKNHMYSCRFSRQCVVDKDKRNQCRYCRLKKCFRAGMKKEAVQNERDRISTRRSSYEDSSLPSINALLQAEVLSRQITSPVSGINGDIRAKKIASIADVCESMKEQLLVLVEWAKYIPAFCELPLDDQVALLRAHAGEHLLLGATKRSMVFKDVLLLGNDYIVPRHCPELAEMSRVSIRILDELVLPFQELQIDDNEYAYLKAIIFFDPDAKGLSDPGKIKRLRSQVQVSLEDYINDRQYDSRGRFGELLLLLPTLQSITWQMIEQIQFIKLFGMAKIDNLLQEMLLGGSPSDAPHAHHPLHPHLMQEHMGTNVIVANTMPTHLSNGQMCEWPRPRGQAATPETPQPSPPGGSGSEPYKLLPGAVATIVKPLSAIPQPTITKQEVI
The experiment is described as follows: protein-binding microarray. The conditions noted are these: COS-7 nuclear extract on double-stranded Agilent 4x180k PBM; binding buffer, salt, pH and temperature not given; high values mean tight binding; double strand, one strand shown; sequences stand for … in …GCCTAGGGAGATTAGAGTATCGGTCGA
As to ACTTCCTTCAAACCTGGGAAAACTTACGCA, the binding signal (log2 normalized intensity) is -1.21. AATGGAGAGGATTTTGGAATGTCGCATAGC: the binding signal (log2 normalized intensity) was 0.274. As to TTGAATAGCATTTTGCAGAGACGGCAAGCC, the binding signal (log2 normalized intensity) was -1.13. For ATGCCAAAGAAGCAAAGGTTGGCTAAAGAT, the binding signal (log2 normalized intensity) stood at 0.0763. AAACATTCCTCCCTCCCTCTTCCCTCATAT: the binding signal (log2 normalized intensity) is 2.94. For the sequence CCCTGACCAAGGGTCATGCTGGTCTCCTTG, the binding signal (log2 normalized intensity) was determined as 2.07. As to ACTTTGCCCCCAAGAAAAGGTTCCTATGTA, the binding signal (log2 normalized intensity) amounted to 1.48. For GGTTGCTGTTATCTTCATTTATAGATAAGC, the binding signal (log2 normalized intensity) worked out at 0.336.

Regarding ACATCTCCCACTGTGGACTCTGAGCCTCCT, the binding signal (log2 normalized intensity) was 3.78. Regarding AGCATCGCTGGACTCTGCTCCTAAGGCAGG, the binding signal (log2 normalized intensity) amounted to 2.19. As to AGGGAATCCTGCATTATCAGGCAAGGGTGG, the binding signal (log2 normalized intensity) was -1.05.

CTTGCCAAGCCTAGTTTTGATTATCACTAC: the binding signal (log2 normalized intensity) was -0.838. In the case of ACAGGCTCAGCAAAGTCAGGTCAGTAGCCC, the binding signal (log2 normalized intensity) was -1.23.

ATGTTAGGCTGGAAAACTGGGCTGTTATTT: the binding signal (log2 normalized intensity) was 0.775.

AGGAATTCAACCAATGTGGAGCTGCTGAAC: the binding signal (log2 normalized intensity) was -1.19. In the case of CTTCGAGCCTGTGGTTTCTCTTTGTATACA, the binding signal (log2 normalized intensity) was determined as 1.32. On to TACTGTACTTTGCTCTCAGCACACTCTGGT, for which the binding signal (log2 normalized intensity) was 1.68. Turning to GCTTATCGTCCCTTCCCTCTGTCTTCAAAA, the binding signal (log2 normalized intensity) was determined as 1.61. Consider TTGGGGCTAATGTCTCTCTGGCCGGAGGGG, for which the binding signal (log2 normalized intensity) amounted to 0.0294. On to ATAAACTGGAAAGGGCTTCAGAGTCGATAG, for which the binding signal (log2 normalized intensity) is -1.08. AGGGGGCCTCCTGCCCCAGGAGCAGGATAG: the binding signal (log2 normalized intensity) is -1.15.

Turning to TGTGATTTGAAATTTGTCCTGGTCACACCA, the binding signal (log2 normalized intensity) was determined as 1.53. Consider TTACAAAGTGGTTGTAGCAGTTCACACTCC, for which the binding signal (log2 normalized intensity) was -0.796. With GGAGCTGCCGCAACATTGTCCAGCAGACAC, the binding signal (log2 normalized intensity) was -1.14. TTAACTGGACAAGGAGGCTGGGCTGCATAG: the binding signal (log2 normalized intensity) was -1.06. With ATCTCAGCTCACTGTAACCTTTGCCCCCCT, the binding signal (log2 normalized intensity) is 8.75. For the sequence TCCTAAACCCCACAGAACAAACAGTACATT, the binding signal (log2 normalized intensity) was 1.22.

In the case of GCGCCGGGGAAGCTGTTGGGCGCCGGAACT, the binding signal (log2 normalized intensity) was -1.23.

As to TCCAGTTGTATCGCCTCCACCTGCACCATT, the binding signal (log2 normalized intensity) was -0.718. TGTGCTCCTGTAGAATGACCCCCTGGGCTC: the binding signal (log2 normalized intensity) is 4.3. On to AAACAAAATGCATTTCCTTATTCTTAACAA, for which the binding signal (log2 normalized intensity) is -1.14.

With TGTTTATCAGAGCAAAGTTCAATTTCCAAC, the binding signal (log2 normalized intensity) is 3.49. Regarding AGGAATGCAGCCCTGCCACTCTTTTTTAGA, the binding signal (log2 normalized intensity) is -1.04.

In the case of AGGCAAACTTTATCAAGACTGCAGCCAGGG, the binding signal (log2 normalized intensity) is -1.1.

With AGTAGGGCGTCTCTTAGTATTACCATGTCC, the binding signal (log2 normalized intensity) is 0.926. The value for ACTTGGACCAGCTTTTGGAAGGACTTCGAA was 1.06. As for CAGGGCTAAAGTCAGGGGCAGGTGGAGGTG, the binding signal (log2 normalized intensity) was -0.182.

For the sequence TCCACTGCATCAGTGCTGACCTACCTGACC, the binding signal (log2 normalized intensity) is 1.87. For the sequence TATAAAAGGCTGTCACACTGGCCTTTGCCC, the binding signal (log2 normalized intensity) was determined as 5.09. Take AACTAGCAACTTGGACCTTGATAGGAGTTA: the binding signal (log2 normalized intensity) is 2.88. As to TCATTCCTAGCCCCACCAAACTGACAGGTT, the binding signal (log2 normalized intensity) amounted to 3.21.

On to ATGAGACATTGTGTCAATTCCAAAGTTCAA, for which the binding signal (log2 normalized intensity) is 4.43.

Consider GTGAAACATCCCACTCAAAGGTCAGGGCTA, for which the binding signal (log2 normalized intensity) was determined as 0.969. With TCCAGCTGCCAGGGAGACAAAGTGTCACAA, the binding signal (log2 normalized intensity) was -1. In the case of TGCCGACCTCCTGACTAAAGTTCATTGCTT, the binding signal (log2 normalized intensity) came to 2.03. Regarding GATTGACCTGACCCAGGCGAGGGTTGCTGC, the binding signal (log2 normalized intensity) was -0.89. Consider ATAGTGACCACCTGGTGGACCCAGCTGGTA, for which the binding signal (log2 normalized intensity) is 2.36. The value for ATAAACACAATTCTTTGGTACTTTGAGCCA was 2.41; that for TTGGATCCAGCTCCTGATGTTTGGTCTTAT was 1.11; that for CTCCTCTCTGTAGTCCTCAGCAATAACTTA was 1.25. The value for GTCTTAGTGCATTCCTTCCCAAGTGCTAGC was 0.469; that for CCTTAGGATGTGGGGTATCAGGTGGTGATG was 1.86; that for CCTTTATCGAACCTATTGTTTAATCTTTGA was 2.41. CTATCTGCCTGCAGGAGAGAGCAAAGTCCA: the binding signal (log2 normalized intensity) was 7.16. Take AGGGGAGGGTGACCAGATTAATTACCCACA: the binding signal (log2 normalized intensity) is -1.09. For GGGCCTCAAGGGAATCTGCTGTAATAAAGC the value was -1.17. Regarding GGGACTTTGCCCTTTTTAATGTTTCATTAA, the binding signal (log2 normalized intensity) came to 3.92. GAGATGAGGCTCAGACCTGACCTTTGGATT: the binding signal (log2 normalized intensity) came to 7.99.

Take TAGTAGGGTCAAAGTCTGGATCCGTTAACA: the binding signal (log2 normalized intensity) is 4.3.

With GCGAACCATTTCCCATGGGACTGGCAAAGC, the binding signal (log2 normalized intensity) was -1.1. The value for GATCTGAGATGCTGGGTGGCATAGTTGATG was 1.07; that for TCTTCACCAAATCATTTCACTTCCTTTGTT was 0.193.

For CAATGCTGGAGGGACTGTGATGAAGGCAGA, the binding signal (log2 normalized intensity) was -0.984. In the case of TGCTGGAGAAAGAGGGGAAGGATGAATTTA, the binding signal (log2 normalized intensity) is -1.13. As to TCAATAAATCACACGAAACAAGTAGCAGTT, the binding signal (log2 normalized intensity) is -1.03. On to AATTGAGATGAGATGGTCAAAGGTTGATGG, for which the binding signal (log2 normalized intensity) amounted to 3.56. GTTATCTGATCAAATTCCACACCCCCCACT: the binding signal (log2 normalized intensity) is 5.45. As for CAGGGTCAATGTCCCCTTAGGAATAGTATC, the binding signal (log2 normalized intensity) came out at 2.14. Consider GGACAGCCTTTTTCAAGCAATGTTTGCCTC, for which the binding signal (log2 normalized intensity) is -1.11. In the case of GCCTCCCGGAGAGGCCCCGCCCCGTCCCCG, the binding signal (log2 normalized intensity) is 6.14.

For the sequence AGCAGGCACCCCGGGAGCGCCGAGCACGTC, the binding signal (log2 normalized intensity) is -1.21. For AACTTTGGACTTTTATGTTAAGATCAAACA the value was 1.97.
